{
  "source": "PubChem BioAssay AID1347073",
  "about": "(National Center for Advancing Translational Sciences (NCATS), 2019)",
  "note": "In all, about 45,000 compounds went through this assay and about 200 (0.44%) were called active. About 7% were inconclusive and are not listed. Calls come from the whole dose curve; as a rule, active = well fitted activation curve with a large enough effect; inconclusive = small, poorly fitted or top-dose-only effect; inactive = no such curve, though single readings can be large or run the other way. The list shows a part of the results.",
  "data": [
    {"assay": "qHTS of TDP-43 Inhibitors: NCGC Sytravon Library Screen; note: 0% is about no effect; nearly all actives have a fitted effect of over 55% in size", "conditions": "yeast TDP-43 toxicity rescue, BacTiter-Glo growth, 24 h; series mostly up to 46.1 µM; growth rescue (activation): at the top concentration", "procedure,_shortened": "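TDP-43-expressing yeast, pregrown in raffinose, seeded at OD600 0.02 in galactose medium with compound for 24 hr at 30 deg C. Growth read by BacTiter-Glo luminescence, so rescue of toxicity appears as activation.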", "values": [
      {"smiles": "CC(=O)/C(C#N)=C1\\NC(=O)C(Cc2ccccc2)S1", "note": "(configuration not stated)", "growth rescue (activation)": "inactive: 1.69%"},
      {"smiles": "COc1ccccc1C(=O)NNC(=O)C(=O)Nc1ccc(C)cc1", "growth rescue (activation)": "inactive: 16.7%"},
      {"smiles": "CCCOc1ccccc1/C=C1\\SC(N2CCCCC2)=NC1=O", "growth rescue (activation)": "inactive: 27.2%"},
      {"smiles": "Cc1cccc(N2C(=O)SC(SC(=Nc3ccccc3)Nc3ccccc3)C2=O)c1", "note": "(configuration not stated)", "growth rescue (activation)": "inactive: -20.4%"},
      {"smiles": "O=C(NCc1ccccc1)C(c1ccccn1)N(C(=O)c1csnn1)c1ccccc1F", "note": "(configuration not stated)", "growth rescue (activation)": "inactive: 16.9%"},
      {"smiles": "CCOc1cc(N2CCOCC2)c(OCC)cc1NC(=O)CN1C(=O)NC(CC(C)C)C1=O", "note": "(configuration not stated)", "growth rescue (activation)": "inactive: 0.404%"},
      {"smiles": "Cc1cc(C)c2c(=O)[nH]c(SCC(=O)Nc3ccc(Br)cc3)nc2n1", "growth rescue (activation)": "inactive: -24.4%"},
      {"smiles": "CC(O)CNc1ncnc2cc(-c3ccc(F)cc3)sc12", "note": "(configuration not stated)", "growth rescue (activation)": "inactive: 2.48%"},
      {"smiles": "O=C(CCNC(=O)c1ccco1)NCc1ccc(C(=O)O)cc1", "growth rescue (activation)": "inactive: 9.91%"},
      {"smiles": "CCc1nc2scc(-c3ccccc3)c2c(=O)n1N", "growth rescue (activation)": "inactive: 17.5%"},
      {"smiles": "CO/N=C(\\C(=O)O)c1csc(NN=C(C)C)n1", "growth rescue (activation)": "inactive: -11.5%"},
      {"smiles": "O=C(COc1ccccc1[N+](=O)[O-])Nc1ccccc1N1CCCC1", "growth rescue (activation)": "inactive: 18.4%"},
      {"smiles": "O=C(Nc1ccccc1)OC1C2CCC1C(N1CCCCC1)CC2", "note": "(configuration not stated)", "growth rescue (activation)": "inactive: -2.37%"},
      {"smiles": "Cc1ccc(C2(C)NC(=O)N(CC(=O)N3CCc4ccccc43)C2=O)cc1", "note": "(configuration not stated)", "growth rescue (activation)": "inactive: -0.519%"},
      {"smiles": "Cc1noc(C)c1S(=O)(=O)Nc1ccc(C(=O)NCc2ccccc2)cc1", "growth rescue (activation)": "inactive: 13.5%"},
      {"smiles": "COc1ccc(C(=O)NC2CCN(C(=S)NCCc3ccccc3)CC2)cc1", "growth rescue (activation)": "inactive: -3.52%"},
      {"smiles": "CCN(CC)CCN(C(=O)Cn1nnc(-c2ccc(C)o2)n1)C(C(=O)NC1CCCC1)c1ccc(F)cc1", "note": "(configuration not stated)", "growth rescue (activation)": "inactive: 2.41%"},
      {"smiles": "Nn1c(SCC(=O)NCC2CCCO2)nnc1-c1ccco1", "note": "(configuration not stated)", "growth rescue (activation)": "inactive: 5.88%"},
      {"smiles": "CCN1CCN(c2ccc([N+](=O)[O-])cc2S(=O)(=O)N2CCOCC2)CC1", "growth rescue (activation)": "inactive: -10.4%"},
      {"smiles": "CC(=O)c1c(C)[nH]c(C(=O)COC(=O)c2ccc3c(=O)n4c(nc3c2)CCC4)c1C", "growth rescue (activation)": "inactive: -6.85%"},
      {"smiles": "CC(C)NC(=O)C1CCN(C2CCN(C(=O)c3cc4c(s3)CCCCC4)CC2)CC1", "growth rescue (activation)": "inactive: 3.66%"},
      {"smiles": "O=C1C(Cc2ccc(O)cc2)NC(=S)N1C1CCCCC1", "note": "(configuration not stated)", "growth rescue (activation)": "inactive: 23%"},
      {"smiles": "CC/C(C)=N\\Nc1nc(-c2cc3cc(OC)ccc3oc2=O)cs1", "growth rescue (activation)": "inactive: -1.26%"},
      {"smiles": "CCCc1nc(SCC(=O)NC2CCCC2)c2ccccc2n1", "growth rescue (activation)": "inactive: 11.7%"},
      {"smiles": "CC(=O)N1CCN(c2ccc([N+](=O)[O-])cc2C#N)CC1", "growth rescue (activation)": "inactive: 18.6%"},
      {"smiles": "COCC(C)N=C1SCCN1Cc1ccccc1", "note": "(configuration not stated)", "growth rescue (activation)": "inactive: 12.3%"},
      {"smiles": "O=C(c1ccc(S(=O)(=O)NCC2CCCO2)cc1)N1CCc2ccccc21", "note": "(configuration not stated)", "growth rescue (activation)": "inactive: 13.2%"},
      {"smiles": "O=C(NCCc1ccc(F)cc1)c1n[nH]c2ccccc12", "growth rescue (activation)": "inactive: 28.9%"},
      {"smiles": "O=C(CSc1ncccn1)N1CCCC1", "growth rescue (activation)": "inactive: -4.19%"},
      {"smiles": "Cc1ccccc1NC(=O)n1ncc2cc(Cl)ccc21", "growth rescue (activation)": "inactive: 7.48%"},
      {"smiles": "Cc1cccc(-c2cc3nc(C)c(C)c(NCCCn4ccnc4)n3n2)c1", "growth rescue (activation)": "inactive: 4.93%"},
      {"smiles": "CCOC(=O)C1(Cc2ccccc2)CCCN(C(=O)c2ccc(-n3ccnc3)cc2)C1", "note": "(configuration not stated)", "growth rescue (activation)": "inactive: 24.6%"},
      {"smiles": "CC(C)(C)c1ccc(NC(=O)c2ccccc2)c([N+](=O)[O-])c1", "growth rescue (activation)": "inactive: -9.54%"},
      {"smiles": "COC(=O)C1CCCCN1C(=O)c1cccc(OC2CCN(C(=O)C3CC3)CC2)c1", "note": "(configuration not stated)", "growth rescue (activation)": "inactive: 15.1%"},
      {"smiles": "C=CCN(C(=O)c1csnn1)C(C(=O)NC1CCCCC1)c1ccc(C)cc1", "note": "(configuration not stated)", "growth rescue (activation)": "inactive: 3.13%"},
      {"smiles": "Cc1ccc(Cn2ccnc2SCC(=O)Nc2ccc3c(c2)OCO3)cc1", "growth rescue (activation)": "inactive: 28.7%"},
      {"smiles": "O=C(CN1CCN(c2ccccc2F)CC1)Nc1ccc2c(c1)CCC2", "growth rescue (activation)": "inactive: 11.3%"},
      {"smiles": "C=CCOc1ccc(/C=N/NC(=O)CC(=O)NC2CCCCC2)cc1", "growth rescue (activation)": "inactive: 6.65%"},
      {"smiles": "COc1ccc(C(=O)C=CNNC(=O)c2ccc(Cl)cc2)cc1", "growth rescue (activation)": "inactive: 11.7%"},
      {"smiles": "O=C(/C=C/c1ccccc1[N+](=O)[O-])N1CCN(C(=O)c2ccco2)CC1", "growth rescue (activation)": "inactive: -0.649%"},
      {"smiles": "CCNC(=O)C1(C)CCN(C(=O)c2cc(F)cc(F)c2)C1", "note": "(configuration not stated)", "growth rescue (activation)": "inactive: 8.39%"},
      {"smiles": "Cc1ccc(NS(=O)(=O)c2cc(-c3n[nH]c(=O)c4ccccc34)ccc2C)cc1", "growth rescue (activation)": "inactive: -21.8%"},
      {"smiles": "CCOC(=O)C1(Cc2cccc(F)c2)CCN(C(=O)c2ccoc2C)CC1", "growth rescue (activation)": "inactive: 28.8%"},
      {"smiles": "O=C(NCCc1c[nH]c2ccccc12)/C(=C\\c1cccnc1)NC(=O)c1ccccc1F", "growth rescue (activation)": "inactive: -2.03%"},
      {"smiles": "CC1=CC(C)(C)n2c(O)c(N=N)c3c(C)c(C)cc1c32", "growth rescue (activation)": "inactive: 28.2%"},
      {"smiles": "Cc1cc(C(=O)N2CCCC(C)(C(=O)NS(=O)(=O)C3CC3)C2)nn1C(C)(C)C", "note": "(configuration not stated)", "growth rescue (activation)": "inactive: 1.09%"},
      {"smiles": "CCN(CC)C(=S)NC(=O)c1cc(OC)c(OC)c(OC)c1", "growth rescue (activation)": "inactive: 7.95%"},
      {"smiles": "O=C(NCCN1CCN(C(=O)c2c(F)cccc2F)CC1)C(=O)Nc1ccc(Cl)cc1", "growth rescue (activation)": "inactive: 13.2%"},
      {"smiles": "CCOc1cc(NC(=O)C2CC2)c(OCC)cc1NC(=O)c1cc(OC)c(OC)c(OC)c1", "growth rescue (activation)": "inactive: 12.3%"},
      {"smiles": "COc1ccc(C)cc1NC(=O)c1ccc(NS(=O)(=O)c2cccs2)cc1", "growth rescue (activation)": "inactive: -3.01%"},
      {"smiles": "CCOC(=O)c1c(C)[nH]c(C)c1C(=O)CSc1nc2ccccc2n1CCOC", "growth rescue (activation)": "inactive: 8.93%"},
      {"smiles": "CC1CCN(CC(=O)NNC(=O)c2cccc(Br)c2)CC1", "growth rescue (activation)": "inactive: 13%"},
      {"smiles": "CCOc1ccc(S(=O)(=O)N2CCCC(C(=O)NCc3cccnc3)C2)cc1Cl", "note": "(configuration not stated)", "growth rescue (activation)": "inactive: 4.57%"},
      {"smiles": "Cc1ccc(C(=O)O)cc1NC(=O)c1ccc2c(c1)C(=O)N(c1ccc([N+](=O)[O-])cc1)C2=O", "growth rescue (activation)": "inactive: 4.75%"},
      {"smiles": "CN1CCN(C(=O)c2cnn(-c3ccccc3)c2NC(=O)c2ccccc2Cl)CC1", "growth rescue (activation)": "inactive: 6.74%"},
      {"smiles": "Cc1c(C(=O)Nc2ccc3c(c2)OCCO3)cnn1C", "growth rescue (activation)": "inactive: 9.42%"},
      {"smiles": "CN(C(=O)CSc1nc(N)c2c3c(sc2n1)CSC(C)(C)C3)c1ccccc1", "growth rescue (activation)": "inactive: 17.2%"},
      {"smiles": "O=C(CSc1nnc(-c2ccc(F)cc2)c2ccccc12)Nc1ccccc1", "growth rescue (activation)": "inactive: 26.6%"},
      {"smiles": "COc1ccccc1CN(C)C(=O)CN1C(=O)c2ccccc2C1=O", "growth rescue (activation)": "inactive: 9.5%"},
      {"smiles": "COc1ccc(C2c3[nH]c4ccccc4c3CCN2CCCn2cccn2)cc1C", "note": "(configuration not stated)", "growth rescue (activation)": "inactive: -4.71%"},
      {"smiles": "O=C(Nc1ccc(F)cc1)c1cccc(N2C(=O)c3ccccc3C2=O)c1", "growth rescue (activation)": "inactive: 14%"},
      {"smiles": "CCc1nnc(NC(=O)C2CC(=O)N(CCc3ccc(F)cc3)C2)s1", "note": "(configuration not stated)", "growth rescue (activation)": "inactive: -11.8%"},
      {"smiles": "CCCCOC(=O)c1ccc(NS(=O)(=O)c2cc(-c3nnnn3CC)ccc2OC)cc1", "growth rescue (activation)": "inactive: 13%"},
      {"smiles": "CC(C)(C)C1CCC(=NNC(=O)CN(c2ccccc2)S(=O)(=O)c2ccccc2[N+](=O)[O-])CC1", "note": "(configuration not stated)", "growth rescue (activation)": "inactive: 8.49%"},
      {"smiles": "O=C(O)c1ccc2c(=O)n3c(nc2c1)/C(=C/c1ccc(OC(F)F)cc1OC(F)F)CC3", "growth rescue (activation)": "inactive: -0.88%"},
      {"smiles": "COc1ccc(-c2nnc3n2-c2ccccc2SC3)cc1OC", "growth rescue (activation)": "inactive: 2.94%"},
      {"smiles": "COc1ccc(OC)c(NC(=O)COC(=O)CCc2nc3ccccc3c(=O)[nH]2)c1", "growth rescue (activation)": "inactive: -3.96%"}
    ]}
  ]
}
